# Reference: PubChem BioAssay AID894 (National Center for Advancing Translational Sciences (NCATS), 2007)
# Where “and” joins values, the source holds several entries; their conditions need not be identical. Equal entries are not always repeated. Screen size: about 150,000 compounds; about 6,500 (4.3%) were called active. The inconclusive results got no clear call from the source; some entries with a clear call stand among them for comparison. Calls come from the whole dose curve; as a rule, active = well fitted inhibition curve with a large enough effect (not every such curve was filed as active); inconclusive = small, poorly fitted or top-dose-only effect, or another doubt; inactive = no such curve, though single readings can be large or run the other way. No potency is given beside an inconclusive call; the fits are too rough. Where a structure was tested more than once in an assay, its records may differ in their call.
# Target: 15-hydroxyprostaglandin dehydrogenase [NAD(+)] (Homo sapiens) (UniProt P15428)
# Assay: qHTS Assay for Inhibitors of HPGD (15-Hydroxyprostaglandin Dehydrogenase)
# Conditions: purified HPGD, NADH fluorescence kinetic, PGE2 substrate; activity change, negative = inhibition: hits give low values
# Procedure, shortened: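 20 nM HPGD preincubated 15 min at room temperature with compound in 50 mM Tris-HCl pH 8, 0.01% Tween 20. Started with 1 mM NAD+ and 30 uM prostaglandin E2; NADH fluorescence (360/450 nm) read 5 times over 30-s intervals, last minus first.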
# % is set by controls: 0 for no effect and ±100 for the full control effect; potency is the fitted concentration of half-maximal effect; tags give direction and shape of the fitted curve.
# Sequence of UniProt P15428 (P15428 whole entry, looked up): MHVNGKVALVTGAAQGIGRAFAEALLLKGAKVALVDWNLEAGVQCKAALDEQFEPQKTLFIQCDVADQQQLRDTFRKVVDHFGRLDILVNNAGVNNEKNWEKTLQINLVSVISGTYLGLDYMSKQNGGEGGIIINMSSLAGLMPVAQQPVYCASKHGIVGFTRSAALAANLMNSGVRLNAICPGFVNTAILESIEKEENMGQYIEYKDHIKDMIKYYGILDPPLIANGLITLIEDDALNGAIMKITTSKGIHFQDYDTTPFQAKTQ
Compound,Potency,"activity change, negative = inhibition"
CC(C)c1cccc(O)c(=O)c1,"inconclusive [inhibitor, single point]",–
CCCCC/C=C\C/C=C\C/C=C\C/C=C\CCCCCC(=O)NCCO,–,inactive: -7.58% and inactive: -6.46%
O=C1NC(=O)N(Cc2ccccc2)C(=O)/C1=C/N1CCCc2ccccc21,–,inactive: -24%
COc1cc2c(cc1O)C[C@@H]1c3c(cc(O)c(OC)c3-2)CCN1C,"inconclusive [inhibitor, partial curve]",–
C=C(C)CCl,–,inactive: -10.1%
CN1C(=O)C(=Cc2ccccc2OCc2ccc(Cl)cc2)C(=O)N(C)C1=O,active: 22.4 µM,–
O=C1NC(=O)N(c2ccc(F)cc2)C(=O)/C1=C/c1ccc2c(c1)CCCN2Cc1ccccc1,"inconclusive [inhibitor, partial curve]",–
CN1C(=O)CCS(=O)(=O)[C@@H]1c1ccc(Cl)cc1,–,inactive: -9.65%
CCC(C)N=Cc1c(O)n(-c2ccccc2)c(=O)[nH]c1=O (configuration not stated),"inconclusive [inhibitor, single point]",–
CCCCCCCCCCCCCl,–,inactive: 1.25%
N#CC(C#N)=Cc1ccc([N+](=O)[O-])c(O)c1,active: 15.8 µM,–
c1ccc2c(c1)[nH]c1cnccc12,"inconclusive [inhibitor, partial curve]",–
c1cc2c(c(NC3=NCCN3)c1)CCCC2,–,inactive: -1.08%
CCN(CC)C(=O)c1ccc(NC(=O)c2cc(-n3cnnc3)ccc2Cl)cc1,active: 1.41 µM,–
CCOC(=O)c1ccc(-n2c(N)c(C(=O)NCC3CCCO3)sc2=S)cc1 (configuration not stated),active: 7.94 µM,–
CCC(C)n1c(O)c(/C=N/Nc2ccccc2)c(=O)[nH]c1=S (configuration not stated),–,inactive: -23.2%
COc1ccc(Nc2ncc(C(=O)N3CCC4(CC3)OCCO4)c3ccccc23)cc1,active: 22.4 µM,–
CCOP(=S)(OCC)SCSC(C)(C)C,–,inactive: -8.9%
O=C1CN(C(=O)CN2CCCCC2)C(c2ccccc2)c2cc(Br)ccc2N1 (configuration not stated),–,inactive: -6.45%
CN1[C@@H]2CC[C@H]1CC(OC(c1ccc(F)cc1)c1ccc(F)cc1)C2 (some centres not stated),–,inactive: -9.16%
CCC(C)C(=O)OC1C[C@@]2(C)C(c3ccoc3)OC(=O)CC23OC2(C)OC34C(OC(=O)C(C)C)[C@]3(O)C(OC(=O)C5(C)OC5C)[C@]5(C)CC3(O)[C@](C)(C5CC(=O)OC)C14O2 (some centres not stated),–,inactive: -1.64%

Compound,Potency,"activity change, negative = inhibition"
COc1ccccc1N1CCN(Cc2ccccc2Cl)CC1,–,inactive: -2.13%
Nc1c(C(=O)NCc2ccco2)c2nc3ccccc3nc2n1Cc1ccccc1,"inconclusive [inhibitor, single point]",–
Cc1cccc(-n2c(C)nc3cc(C(=O)N4CCC5(CC4)OCCO5)ccc32)c1,active: 14.1 µM,–
COc1cc(/C=C2\C(=O)NC(=O)N(CCc3ccc(F)cc3)C2=O)ccc1O,active: 12.6 µM,–
O=C(O)CN1CCN(CC(=O)O)CC(=O)[O][Hg][O]C(=O)C1,active: 0.0398 µM,–
Nc1ccc([As](=O)(O)O)cc1,–,inactive: 1.47%
Cc1ccc(-n2nc(C)c3c2NC(=O)CSC3c2ccc3c(c2)OCO3)cc1 (configuration not stated),active: 17.8 µM,–
COc1cc(-c2ccc(=O)[nH]n2)ccc1OC(F)F,active: 20 µM,–
O=C(N1CCOCC1)C1(c2ccccc2)CCNCC1,–,inactive: 1.39%
N/C(=N\N=C/c1ccc(-c2ccc(O)c(C(=O)O)c2)o1)N[N+](=O)[O-],active: 7.08 µM,–
Fc1ccc(CCNCc2ccccc2Cl)cc1,–,inactive: 2.04%
CCn1c(O)c(C=Nc2cc(Cl)ccc2Cl)c(=O)n(CC)c1=O,"inconclusive [inhibitor, single point]",–
CCOP(=O)(NC(C)C)Oc1ccc(SC)c(C)c1 (configuration not stated),active: 5.62 µM,–
CCC(CO)NC(=O)[C@@H]1C=C2c3cccc4[nH]cc(c34)C[C@H]2N(C)C1 (some centres not stated),"inconclusive [inhibitor, partial curve]",–
C=CCN1C(=O)/C(=C/c2cccs2)C(=O)NC1=S,active: 3.16 µM,–
Cc1cccc(C(=O)Nc2ccc(Cl)cc2C(=O)c2ccccc2)c1,–,inactive: -15.2%
CCOC(=O)c1sc(/N=C/c2c(O)n(-c3ccccc3)c(=O)[nH]c2=O)c(C#N)c1C,active: 25.1 µM,–
COC(=O)CSC1=NP(=S)(SCC(=O)OC)N2CCCC2=C1C#N (configuration not stated),–,inactive: -2.27%
Cc1cccc(N2C(=O)NC(=O)/C(=C\c3cc(C)n(-c4sc5c(c4C#N)CCCC5)c3C)C2=O)c1C,active: 3.98 µM,–
CC[C@H](CO)NC(=O)[C@H]1C=C2c3cccc4[nH]cc(c34)C[C@@H]2N(C)C1,"inconclusive [inhibitor, partial curve]",–
Nc1ccc2c3c(cccc13)CC2,"inconclusive [inhibitor, partial curve]",–

Compound,Potency,"activity change, negative = inhibition"
CN1C(=O)C(=Cc2ccc(N3CCOCC3)o2)C(=O)N(C)C1=O,active: 15.8 µM,–
[O-]/[N+](=N\O)c1ccccc1,active: 12.6 µM,–
c1ccc2c(c1)CCCC2,–,inactive: -6.69%
CCn1c(N)c(C(=O)NC)sc1=S,active: 3.55 µM,–
Oc1ccc2c3c1O[C@H]1c4oc5ccccc5c4C[C@]4(O)[C@H](C2)N(CC2CC2)CC[C@@]314,–,inactive: -5.86%
O=C(c1cc2c(s1)CCCC2)N1CCC2(CC1)OCCO2,active: 25.1 µM,–
CCCCCCCCCCCC[N+](C)(C)CCOc1ccccc1,–,inactive: -6.19%
CCCCCCCCn1sccc1=O,"inconclusive [inhibitor, single point]",–
CC(C)(c1ccc(OC[C@@H]2CO2)cc1)c1ccc(OC[C@H]2CO2)cc1,active: 12.6 µM,–
CC12CN3CC(C)(CN(C1)C3c1cccnc1)C2=O (configuration not stated),–,inactive: 0.662%
COc1ccc([N+](=O)[O-])cc1N=Cc1c(O)n(CCc2ccccc2)c(=O)n(C(C)C)c1=O,–,inactive: -4.82%
COc1ccc(C2SCC(=O)Nc3c2c(C)nn3-c2ccccc2)cc1OC (configuration not stated),"inconclusive [inhibitor, partial curve, poor fit]",–
CCCCOc1ccc(CC2C(=O)N(C)C(=O)N(C)C2=O)cc1,–,inactive: -18.9%
Cc1ccccc1NC1=NCC(C)S1 (configuration not stated),"inconclusive [inhibitor, single point]",–
CC(C)c1ccc(N2C(=O)NC(=O)/C(=C/C=C/c3ccco3)C2=O)cc1,active: 3.16 µM,–
CN1CCc2nc(N)c(C#N)c(-c3ccccc3)c2C1,"inconclusive [inhibitor, partial curve]",–
Cc1ccc(-c2nn(C)c(=O)c3ccccc23)cc1CNC(=O)/C=C/c1ccccc1,"inconclusive [inhibitor, partial curve]",–
CC(=O)[O][Hg][c]1ccccc1,active: 316 nM and active: 251 nM,–
CCC(C)N1C(=O)/C(=C\c2cc3c4c(c2)CCCN4CCC3)C(=O)NC1=S (configuration not stated),active: 22.4 µM,–
COc1cccc(NC(=O)N2CCC3(CC2)OCCO3)c1,–,inactive: -8.8%
COC1=CC(=O)O[C@@H](/C=C\c2ccccc2)C1,–,inactive: 0.668%

Compound,Potency,"activity change, negative = inhibition"
O=c1ccc2[nH]cc(C3=CCNCC3)c2[nH]1,"inconclusive [inhibitor, single point]",–
O=[N+]([O-])c1ccccc1O,–,inactive: -0.533%
CCCCC/C=C\C/C=C\C/C=C\C/C=C\CCCC(=O)O,active: 15.8 µM,–
CC(C)c1ccc2c(c1O)CCC1C3=C(CC[C@]21C)C(=O)OC3 (some centres not stated),–,inactive: -18.7%
c1ccc2c(c1)c1cccc3ccc4cccc2c4c31,"inconclusive [inhibitor, partial curve]",–
C=CCN1C(=O)NC(=O)/C(=C/c2cc3c4c(c2)CCCN4CCC3)C1=O,active: 14.1 µM,–
O=c1[nH]c(SCc2ccccc2Cl)nc2c1CCCC2,active: 2 µM,–
O=[N+]([O-])/C=C/c1c(OCc2ccccc2)ccc2ccccc12,active: 15.8 µM,–
CC1=C2C(=O)[C@@H]3[C@@H](CC=C4C[C@@H](O)CC[C@@]43C)[C@H]2CC[C@@]12O[C@H]1C[C@H](C)CN[C@H]1[C@@H]2C,–,inactive: -6.04%
CCCSc1ccc2nc(NC(=O)OC)[nH]c2c1,"inconclusive [inhibitor, single point]",–
O=C1CN=C(c2ccccc2)c2cc(Br)ccc2N1Cc1cc(=O)n2ccccc2n1,–,inactive: -13.9%
COc1c(CC=C(C)C)c2c(c3oc(=O)c(-c4ccc(O)cc4)c(O)c13)C=CC(C)(C)O2,–,inactive: -4.68%
Oc1cc(Cl)cc(Cl)c1Cl,"inconclusive [inhibitor, partial curve]",–
Cn1c(=O)oc2cc(S(=O)(=O)NC3CCCCCCC3)ccc21,"inconclusive [inhibitor, partial curve]",–
COC(=O)[C@@H]1[C@@H]2C[C@H]3c4[nH]c5cc(OC)ccc5c4CCN3C[C@@H]2C[C@H](OC(=O)/C=C\c2cc(OC)c(OC)c(OC)c2)[C@H]1OC,"inconclusive [inhibitor, partial curve, poor fit]",–
CCOC(=O)Cn1c(=O)oc2cc(S(=O)(=O)NC3CCCc4ccccc43)ccc21 (configuration not stated),"inconclusive [inhibitor, single point]",–
COc1ccccc1C1=NCc2nnc(C)n2-c2ccc(Cl)cc21,active: 28.2 µM,–
CC(N)c1cccc(Cl)c1Cl (configuration not stated),–,inactive: -4.76%
Cc1ccc(O)c(CN2CCN(c3ccccc3)CC2)c1,"inconclusive [inhibitor, partial curve]",–
